Laboratory results published in the supplement of paper PMC4967469.
A lower IC50 marks a more sensitive line; fits outside the tested doses are given as limits. AUC sums up the same curve from the lowest dose to the 256-fold higher top dose; it is 1 without any effect and falls as sensitivity rises. An inferred top dose comes from the curve model; the source does not state it.

What was measured:
Assay in all cases: Viability of human cancer cell lines after 72 h of drug (GDSC screen)
CH5424802 = compound: CCc1cc2c(cc1N1CCC(N3CCOCC3)CC1)C(C)(C)c1[nH]c3cc(C#N)ccc3c1C2=O [CH5424802]; conditions: top dose 5.12 µM; top dose inferred
Method: (§1)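 Human cancer cell lines in 384-well plates, medium with 10% serum, drug for 72 h over a 256-fold dose range (nine 2-fold or five 4-fold steps up to the top dose). Adherent lines were fixed and stained with the nucleic acid dye Syto60, suspension lines read with resazurin; signal relative to control wells, capped at 0 and 100%. One two-parameter sigmoid per drug and line, fitted in a mixed model over all curves with the slope shared within a line.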

ACHP (KIN001-260) = compound: N#Cc1c(C2CCNCC2)cc(-c2c(O)cccc2OCC2CC2)nc1N [ACHP (KIN001-260)]; conditions: top dose 20 µM; top dose inferred
Method: as §1

CAY10603 = compound: CC(C)(C)OC(=O)Nc1ccc(-c2cc(C(=O)NCCCCCCC(=O)NO)no2)cc1 [CAY10603]; conditions: top dose 20 µM; top dose inferred
Method: as §1

XMD8-92 = compound: CCOc1cc(N2CCC(O)CC2)ccc1Nc1ncc2c(n1)N(C)c1ccccc1C(=O)N2C [XMD8-92]; conditions: top dose 10 µM; top dose inferred
Method: as §1

Row | Cell Line | AUC (CH5424802) | IC50 (CH5424802) | AUC (ACHP (KIN001-260)) | IC50 (ACHP (KIN001-260)) | AUC (CAY10603) | IC50 (CAY10603) | AUC (XMD8-92) | IC50 (XMD8-92)
1 | SW948 (large intestine, adherent) | 0.975 | > 5.12 µM | 0.953 | > 20 µM | 0.611 | 2.91 µM | 0.98 | > 10 µM
2 | KNS-42 (glioma, adherent) | 0.984 | > 5.12 µM | 0.959 | > 20 µM | 0.59 | 2.31 µM | 0.912 | > 10 µM
3 | CAL-27 (head and neck, adherent) | 0.984 | > 5.12 µM | 0.979 | > 20 µM | 0.495 | 1.21 µM | 0.831 | 6.5 µM
4 | IGR-1 (melanoma, adherent) | 0.99 | > 5.12 µM | 0.978 | > 20 µM | 0.348 | 0.502 µM | 0.894 | 9.41 µM
5 | DOV13 (ovary, adherent) | 0.981 | > 5.12 µM | 0.962 | > 20 µM | 0.983 | > 20 µM | 0.866 | > 10 µM
6 | TE-12 (oesophagus, suspension) | 0.953 | > 5.12 µM | 0.961 | > 20 µM | 0.983 | > 20 µM | 0.95 | > 10 µM
7 | KYSE-410 (oesophagus, adherent) | 0.985 | > 5.12 µM | 0.985 | > 20 µM | 0.786 | 9.28 µM | 0.809 | 5.65 µM
8 | SW872 (soft tissue, adherent) | 0.989 | > 5.12 µM | 0.981 | > 20 µM | 0.496 | 1.22 µM | 0.819 | 5 µM
9 | ES6 (Ewing sarcoma, adherent) | 0.893 | > 5.12 µM | 0.898 | > 20 µM | 0.552 | 1.79 µM | 0.979 | > 10 µM
10 | CCK-81 (large intestine, adherent) | 0.96 | > 5.12 µM | 0.953 | > 20 µM | 0.487 | 1.16 µM | 0.895 | > 10 µM
11 | CAL-12T (non-small cell lung carcinoma, adherent) | 0.933 | > 5.12 µM | 0.917 | > 20 µM | 0.559 | 1.84 µM | 0.886 | > 10 µM
12 | ES3 (Ewing sarcoma, adherent) | 0.902 | > 5.12 µM | 0.932 | > 20 µM | 0.387 | 0.6 µM | 0.882 | > 10 µM
13 | LB373-MEL-D (melanoma, adherent) | 0.988 | > 5.12 µM | 0.966 | > 20 µM | 0.585 | 2.13 µM | 0.911 | > 10 µM
14 | PCI-4B (head and neck, adherent) | 0.979 | > 5.12 µM | 0.987 | > 20 µM | 0.434 | 0.834 µM | 0.809 | 4.91 µM
15 | H2869 (mesothelioma, adherent) | 0.955 | > 5.12 µM | 0.968 | > 20 µM | 0.637 | 3.28 µM | 0.97 | > 10 µM
16 | SU-DHL-10 (B-cell lymphoma, suspension) | 0.997 | > 5.12 µM | 0.918 | 14.1 µM | 0.011 | < 0.0781 µM | 0.872 | 5.15 µM
17 | PFSK-1 (medulloblastoma, adherent) | 0.985 | > 5.12 µM | 0.967 | > 20 µM | 0.656 | 3.48 µM | 0.799 | 5.12 µM
18 | KYSE-450 (oesophagus, adherent) | 0.932 | > 5.12 µM | 0.901 | > 20 µM | 0.697 | 4.31 µM | 0.942 | > 10 µM
19 | QGP-1 (pancreas, adherent) | 0.959 | > 5.12 µM | 0.939 | > 20 µM | 0.646 | 4.06 µM | 0.951 | > 10 µM
20 | RCC-JW (kidney, adherent) | 0.872 | 5.12 µM | 0.952 | > 20 µM | 0.563 | 1.86 µM | 0.912 | > 10 µM
21 | OV-7 (ovary, adherent) | 0.855 | > 5.12 µM | 0.905 | > 20 µM | 0.571 | 2.16 µM | 0.958 | > 10 µM
22 | TYK-nu (ovary, adherent) | 0.98 | > 5.12 µM | 0.984 | > 20 µM | 0.538 | 1.6 µM | 0.93 | > 10 µM
23 | C2BBe1 (large intestine, adherent) | 0.977 | > 5.12 µM | 0.978 | > 20 µM | 0.616 | 2.73 µM | 0.911 | > 10 µM
24 | CAPAN-1 (pancreas, adherent) | 0.985 | > 5.12 µM | 0.987 | > 20 µM | 0.773 | 8.67 µM | 0.942 | > 10 µM
25 | JHOS-2 (ovary, adherent) | 0.959 | > 5.12 µM | 0.958 | > 20 µM | 0.605 | 2.56 µM | 0.867 | > 10 µM
26 | NCI-H841 (small cell lung carcinoma, adherent) | 0.988 | > 5.12 µM | 0.98 | > 20 µM | 0.77 | 7.66 µM | 0.961 | > 10 µM
27 | PANC-02-03 (pancreas, adherent) | 0.975 | > 5.12 µM | 0.938 | > 20 µM | 0.48 | 1.09 µM | 0.883 | > 10 µM
28 | OVCA433 (ovary, adherent) | 0.975 | > 5.12 µM | 0.983 | > 20 µM | 0.649 | 3.39 µM | 0.824 | 6.84 µM
29 | HCT-15 (large intestine, adherent) | 0.98 | > 5.12 µM | 0.973 | > 20 µM | 0.696 | 4.63 µM | 0.981 | > 10 µM
30 | RL (B-cell lymphoma, suspension) | 0.989 | > 5.12 µM | 0.931 | > 20 µM | 0.375 | 0.583 µM | 0.799 | 4.34 µM
